{"source": "PubChem BioAssay AID624417", "about": "(National Center for Advancing Translational Sciences (NCATS), 2012)", "note": "Out of some 410,000 compounds screened, about 6,400 (1.6%) were called active. The shares of active, inactive and inconclusive entries below differ from those in the screen. Calls come from the whole dose curve; as a rule, active = well fitted inhibition curve with a large enough effect; inconclusive = small, poorly fitted or top-dose-only effect; inactive = no such curve, though single readings can be large or run the other way. No potency is given beside an inconclusive call; the fits are too rough. Potency is the fitted concentration of half-maximal effect; tags give direction and shape of the fitted curve.", "data": [{"biological_target": "Glucagon-like peptide 1 receptor (Homo sapiens) (UniProt P43220)", "sequence (P43220 whole entry, looked up)": "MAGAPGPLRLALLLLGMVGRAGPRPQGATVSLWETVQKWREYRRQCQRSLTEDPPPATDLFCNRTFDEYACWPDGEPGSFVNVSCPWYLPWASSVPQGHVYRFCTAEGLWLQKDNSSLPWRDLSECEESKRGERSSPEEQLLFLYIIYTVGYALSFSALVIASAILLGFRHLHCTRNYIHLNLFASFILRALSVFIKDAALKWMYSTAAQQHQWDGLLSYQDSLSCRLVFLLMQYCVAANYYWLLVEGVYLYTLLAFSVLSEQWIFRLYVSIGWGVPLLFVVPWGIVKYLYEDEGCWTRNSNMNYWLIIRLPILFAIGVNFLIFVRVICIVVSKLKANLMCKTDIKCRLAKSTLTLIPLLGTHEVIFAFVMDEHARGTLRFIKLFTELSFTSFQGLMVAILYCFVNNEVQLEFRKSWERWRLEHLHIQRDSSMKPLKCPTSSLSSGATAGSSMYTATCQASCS", "test": "qHTS of GLP-1 Receptor Inverse Agonists (Inhibition Mode); note: nearly all actives have a fitted effect of over 55% in size", "settings": "HEK293 GLP-1R CRE-luciferase, luminescence, 24 h, GLP-1R form is constitutively active; series mostly up to 38.3 µM", "procedure,_shortened": "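HEK293 cells stably co-expressing a cAMP-responsive luciferase reporter and constitutively active GLP-1R were seeded, incubated 12 h, then exposed to compounds for 24 h at 37 C. Luminescence was read 12 min after detection reagent; inverse agonists lower signal.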", "values": [{"compound": "CCOC(=O)C1(CCCc2ccccc2)CCN(Cc2ccn[nH]2)CC1", "Potency": "active: 4.47 µM"}, {"compound": "CCOc1ccccc1NC(=S)/C(=C(\\[O-])c1ccc2c(c1)OCCO2)[n+]1ccc(CC)cc1", "Potency": "inconclusive [inhibitor, full curve]"}, {"compound": "COc1ccc(C)cc1NC(=O)Nc1ccccc1", "Potency": "inconclusive [inhibitor, partial curve, poor fit]"}, {"compound": "CCN(CC)c1ccc(NC(=O)C2CCCN(S(=O)(=O)c3cnc[nH]3)C2)c(C)c1", "note": "(centres undefined)", "Potency": "inconclusive [inhibitor, partial curve, poor fit]"}, {"compound": "CC(Sc1nnc2n1CCCCC2)C(=O)Nc1cccc(S(=O)(=O)N2CCOCC2)c1", "note": "(centres undefined)", "Potency": "inactive"}, {"compound": "CCCC(=O)Nc1sc2c(c1C(=O)Nc1ccccn1)CCCC2", "Potency": "inconclusive [inhibitor, single point]"}, {"compound": "CCOc1ccccc1NC(=O)Cn1nnc(C(=O)NCc2ccc3c(c2)OCO3)c1N", "Potency": "inconclusive [inhibitor, partial curve, poor fit]"}, {"compound": "CC(=NNC(=O)c1ccncc1)c1ccccc1Cl", "Potency": "inactive"}, {"compound": "COc1ccccc1N1CCN(C(=O)CSc2nc(-c3ccco3)cc(C(F)(F)F)n2)CC1", "Potency": "inconclusive [inhibitor, single point]"}, {"compound": "COc1ccc(-c2noc(C3CCCN(C(=O)c4ccc(F)cc4)C3)n2)cc1", "note": "(centres undefined)", "Potency": "inconclusive [inhibitor, single point]"}, {"compound": "COc1cc(Br)cc(C(=O)N2CCc3ccccc32)c1OC", "Potency": "inconclusive [inhibitor, partial curve, poor fit]"}, {"compound": "Oc1ccc(-c2nc(-c3ccc(O)c(O)c3)cs2)cc1", "Potency": "inconclusive [inhibitor, partial curve, poor fit]"}, {"compound": "CNC(=S)N(Cc1ccc2c(c1)OCO2)C1CC(=O)N(c2ccc(F)cc2)C1=O", "note": "(centres undefined)", "Potency": "inconclusive [inhibitor, partial curve, poor fit]"}, {"compound": "O=c1[nH]cnc2c1ccn2C1OC(CO)C(O)C1O", "note": "(centres undefined)", "Potency": "inconclusive [inhibitor, single point]"}, {"compound": "C[C@@]12CCC=C[C@H]1[C@H](c1ccc3ccccc3c1)N(Cc1ccccc1)C2=O", "Potency": "inconclusive [inhibitor, partial curve, poor fit]"}, {"compound": "COc1cc2c(cc1OC)CN(C(C)C(=O)N1CCc3ccccc31)CC2", "note": "(centres undefined)", "Potency": "inconclusive [inhibitor, partial curve, poor fit]"}, {"compound": "Cc1ccc(C(=O)CCC(=O)OCc2nnc(-c3ccccc3)o2)cc1", "Potency": "inactive"}, {"compound": "Cc1cc(NC(=O)c2cc(S(=O)(=O)N3CCCCC3)ccc2C)no1", "Potency": "inconclusive [inhibitor, full curve, poor fit]"}, {"compound": "CC(=O)Oc1ccc(/C=N/NC(=S)Nc2ccccc2)cc1", "Potency": "inconclusive [inhibitor, single point]"}, {"compound": "O=C(Nc1ccc(Oc2ccccc2)nc1)C1CCCCN1Cc1ccco1", "note": "(centres undefined)", "Potency": "inconclusive [inhibitor, full curve, poor fit]"}, {"compound": "COc1ccc(-c2noc(CCC(=O)NCCN3CCN(c4ccccc4F)CC3)n2)cc1", "Potency": "inconclusive [inhibitor, single point]"}, {"compound": "CCCOC(=O)c1c(-c2ccc(C)cc2C)csc1NC(=O)C1C2CCC(O2)C1C(=O)O", "note": "(centres undefined)", "Potency": "inconclusive [inhibitor, partial curve, poor fit]"}, {"compound": "Cc1cccc2cc(CN(Cc3cccs3)C(=S)NCc3ccco3)c(=O)[nH]c12", "Potency": "inconclusive [inhibitor, single point]"}, {"compound": "O=C(NCc1cccnc1)c1cccc(NS(=O)(=O)c2ccc(Br)cc2)c1", "Potency": "inconclusive [inhibitor, partial curve, poor fit]"}, {"compound": "NNc1nc(-c2ccccc2)cc(-c2ccccc2O)n1", "Potency": "inactive"}, {"compound": "Cc1ccc(N2C(=O)N(Cc3cccc(Cl)c3)c3ccccc3S2(=O)=O)cc1", "Potency": "inconclusive [inhibitor, partial curve, poor fit]"}, {"compound": "Cc1ccc(CNC(=O)Nc2ccccc2)c(C)c1", "Potency": "inconclusive [inhibitor, single point]"}, {"compound": "CN1/C(=C/C(=O)COC(=O)CN2C(=O)C3CC=CCC3C2=O)C(C)(C)c2ccccc21", "note": "(centres undefined)", "Potency": "inconclusive [inhibitor, single point]"}, {"compound": "Cc1ccc(C)c(Cn2c(=O)n(CCCC(=O)NCc3ccc4c(c3)OCO4)c(=O)c3sccc32)c1", "Potency": "inconclusive [inhibitor, partial curve, poor fit]"}, {"compound": "Oc1ccc(C[C@H]2CNCCN2CC2(c3ccccc3)CC2)cc1", "Potency": "inconclusive [inhibitor, single point]"}, {"compound": "O=C(CCN1CCCCC1)N1CCc2c([nH]c3ccccc23)C1c1cccnc1", "note": "(centres undefined)", "Potency": "inconclusive [inhibitor, partial curve, poor fit]"}, {"compound": "O=C(NCCC1CCCCN1S(=O)(=O)c1cccs1)C(=O)Nc1cccc(F)c1", "note": "(centres undefined)", "Potency": "inconclusive [inhibitor, single point]"}, {"compound": "NCc1nc(-c2ccc(Cl)cc2)no1", "Potency": "inconclusive [inhibitor, single point]"}, {"compound": "COc1ccc(C)cc1NC(=O)CCN1CCN(C/C=C/c2ccccc2)CC1", "Potency": "inconclusive [inhibitor, partial curve, poor fit]"}, {"compound": "Fc1ccc(-c2nc3c4ccccc4ccn3c2Cc2ccsc2)cc1", "Potency": "inconclusive [inhibitor, single point]"}, {"compound": "COc1cc2c(cc1NC(=O)C(C)Oc1ccccc1)oc1ccccc12", "note": "(centres undefined)", "Potency": "inconclusive [inhibitor, partial curve, poor fit]"}, {"compound": "Cc1c(C)n(Cc2ccc(F)cc2)c2ccc(C(=O)N3CCN(c4ccccn4)CC3)cc12", "Potency": "inconclusive [inhibitor, partial curve, poor fit]"}, {"compound": "O=C(c1ccc(=O)[nH]c1)N1CCN(S(=O)(=O)c2cc(C(F)(F)F)ccc2Cl)CC1", "Potency": "inactive"}, {"compound": "CC(C)(C)NC(=O)C(c1ccc(-c2ccccc2)cc1)N(C[C@H]1CC[C@@H]([C@@H]2CC[C@H](CO)O2)O1)C(=O)c1cccc(Cl)c1", "note": "(some centres undefined)", "Potency": "inconclusive [inhibitor, single point]"}]}]}
